Measurements as given in PubChem BioAssay AID504832 (National Center for Advancing Translational Sciences (NCATS), 2011).
Out of some 310,000 compounds screened, about 18,000 (5.8%) were called active. Inconclusive results, whose numbers are uncertain, are shown with a selection of clear calls. The call rests on the fitted dose curve; in most records, active means well fitted inhibition curve with a large enough effect; inconclusive means small, poorly fitted or top-dose-only effect, or another doubt; inactive means no such curve, though single readings can be large or run the other way. Potencies of inconclusive entries are left out as doubtful fits.

Test: Primary qHTS for delayed death inhibitors of the malarial parasite plastid, 48 hour incubation
Conditions: P. falciparum luciferase growth in erythrocytes; series mostly up to 28.7 µM; activity change, negative = inhibition: at the top concentration
In short: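 First compound was added to culture medium, then infected red cells at 0.1% parasitemia and 2% hematocrit (final). After incubation at 37 C under 5% CO2, luciferase detection reagent was dispensed and light output recorded.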
On the % scale 0 is the no-effect control and ±100 the full control effect; potency means the concentration at half of the fitted maximal effect; tags describe the fitted curve by direction and shape.

SMILES | activity change, negative = inhibition | Potency
COC(=O)n1ccc(C(=O)Nc2ccccc2F)n1 | inactive: 77.4% | –
O=C(NCc1ccccc1)C1CCCN1S(=O)(=O)c1cccc2cccnc12 (stereo unspecified) | inactive: -6.14% | –
Cn1nc(C(F)(F)F)c(-c2cccc(C(F)(F)F)c2)c1NC(=O)c1ccco1 | – | inconclusive [inhibitor, partial curve, poor fit]
COc1ccc2nc(/C(C#N)=C\c3ccc(C(=O)O)cc3)[nH]c2c1 | inactive: 27.4% | –
Cn1c(O)c(N=NC(=O)c2cccc(S(=O)(=O)N3CCCCC3)c2)c2ccccc21 | – | active: 10.4 µM
CCOc1ccc(Oc2ccc(NS(=O)(=O)c3cc(C(=O)O)ccc3Cl)cc2)cc1 | inactive: -0.699% | –
Cc1ccc(C)c(/C=N/n2cc(-c3ccccc3)[nH]c2=S)c1 | – | inconclusive [inhibitor, single point]
CCN1CCN(C(=O)CN(CC)S(=O)(=O)c2ccc(Cl)cc2)CC1 | inactive: 17.5% | –
Cc1ccc(NS(=O)(=O)c2cc([N+](=O)[O-])ccc2N/N=C/c2sc(N3CCOCC3)nc2-c2ccccc2)c(C)c1 | – | inconclusive [inhibitor, full curve]
CCOC(=O)CC(NC(=O)Cn1nnc(-c2ccccc2F)n1)c1ccccc1Cl (stereo unspecified) | inactive: 1.33% | –
COc1ccc(CCNc2ccc(C(CC(N)=O)NC(=O)Cc3ccc(Br)cc3)cc2[N+](=O)[O-])cc1 (stereo unspecified) | – | inconclusive [inhibitor, partial curve, poor fit]
CN(C)c1oc(/C=C/c2cccs2)nc1S(=O)(=O)c1ccccc1 | – | inconclusive [inhibitor, partial curve]
COc1cccc(NC(=O)c2ccc(-n3cccn3)nc2)c1 | inactive: 79.2% | –
COc1cc2nc(SCc3ccc(Cl)cc3Cl)n(Cc3cccs3)c(=N)c2cc1OC | – | inconclusive [inhibitor, partial curve, poor fit]
C/C(N)=C(/C#N)C(=O)COC(=O)c1cccc(C)c1O | inactive: 17.2% | –
Fc1ccc(NC(=S)NCCc2ccccc2)c(F)c1F | – | inconclusive [inhibitor, partial curve, poor fit]
COc1ccc(NC(=O)c2ccc(NC(=O)c3nc4nc(C)cc(C)n4n3)cc2)cc1 | inactive: 37.5% | –
COc1ccccc1CNC(=O)C1CC2Cn3c(nc4cc5ccccc5cc43)C2N1C (stereo unspecified) | – | inconclusive [inhibitor, single point]
CCc1ccc(-c2nn(-c3ccccc3)cc2CSC(=N)N)cc1 | – | active: 4.15 µM
COc1ccc(-c2[nH]ncc2/C=N/NC(=O)c2ccncc2)c(OC)c1 | inactive: -1.39% | –
C#C[C@]1(O)CC[C@H]2[C@@H]3CCC4=Cc5nc6nc7ccccc7n6cc5C[C@]4(C)[C@H]3CC[C@@]21C | – | active: 3.7 µM
O=S(=O)(c1ccc(F)c(F)c1F)N1CCN(C(=S)NCc2ccccc2)CC1 | – | inconclusive [inhibitor, full curve, poor fit]
CN(C)c1ccc(-c2noc(C3CCN(S(=O)(=O)c4cccc(C(=O)O)c4)CC3)n2)cc1 | – | inconclusive [inhibitor, partial curve, poor fit]

SMILES | activity change, negative = inhibition | Potency
O=C(NCc1ccc(F)cc1)c1cc2c(s1)CS(=O)(=O)C2 | inactive: 1.64% | –
Cc1ccccc1C(=O)O/N=C/c1c(N2CCOCC2)n(C)c2ccccc12 | – | active: 2.62 µM
CCOC(=O)CN(C(=O)CNC(=O)c1ccco1)C(C(=O)NC1CCCCC1)c1cccs1 (stereo unspecified) | – | inconclusive [inhibitor, single point]
CCCC(=O)N1CCN(c2ccc(NC(=O)c3cc4ccccc4o3)cc2Cl)CC1 | – | active: 1.47 µM
CCOP(=S)(OCC)N1CCOCCOCCN(P(=S)(OCC)OCC)CCOCCOCC1 | – | active: 6.57 µM
COc1ccc(OC)c(NC(=O)CCC(=O)Nc2nnc(C(C)C)s2)c1 | inactive: 13.8% | –
COc1ccc(NC(=O)/C=C/c2ccc(Br)o2)cn1 | inactive: 63.1% | –
COc1ccc(Cn2nnnc2C(c2ccccc2Cl)N2CCC(C(N)=O)CC2)cc1 (stereo unspecified) | – | inconclusive [inhibitor, single point]
O=C(Nc1ccc2[nH]c(=O)[nH]c2c1)c1ccc(Br)o1 | inactive: 32.1% | –
COc1ccc(NC(=O)c2cc(-c3ccc(C)c(C)c3O)n[nH]2)cc1Cl | – | inconclusive [inhibitor, partial curve, poor fit]
CN(C)C(CNC(=O)CCc1nc2cc(Cl)ccc2n(Cc2ccccc2)c1=O)c1ccccc1 (stereo unspecified) | – | active: 9.28 µM
CN(C)c1ccc(/C=N\NC(=O)CC#N)cc1 | inactive: 62.4% | –
Nc1c(NCCC2=CCCCC2)c(=O)[nH]c(=O)n1Cc1ccccc1 | – | inconclusive [inhibitor, partial curve, poor fit]
O=C1c2ccccc2CN1CCNS(=O)(=O)c1ccc(Cl)cc1 | – | inconclusive [inhibitor, single point]
C=CCNC(=O)c1ccc(Sc2ccc(C)cc2)c([N+](=O)[O-])c1 | – | inconclusive [inhibitor, single point]
Clc1ccc(OCCCCCN2CCCC2)c(Br)c1 | inactive: -58.4% | –
Cc1c(C)c2ccc(Oc3ccc([N+](=O)[O-])cc3C(F)(F)F)c(C)c2oc1=O | – | inconclusive [inhibitor, single point]
CCOc1ccccc1/C=C(/NC(=O)c1ccccc1)C(=O)N1CCCCC1 | – | inconclusive [inhibitor, single point]
CCCCNCCCOc1ccc(C)cc1Br | – | inconclusive [inhibitor, partial curve, poor fit]
COc1ccc(OC)c(NC(=O)C2CCCCC2)c1 | inactive: 1.69% | –
COc1ccc(C2=NN(C(=O)CSc3nc4ncc(Cl)cc4[nH]3)C(c3ccco3)C2)cc1 (stereo unspecified) | – | inconclusive [inhibitor, single point]
C=CCOC(=O)C1=C[C@@H](c2ccc3c(c2)OCO3)C[C@@H](OCc2ccc(CO)cc2)O1 | – | inconclusive [inhibitor, partial curve]
CCOc1ccc(N=Cc2c(O)n(-c3cccc(C)n3)c(=O)c3ccccc23)cc1 | – | inconclusive [inhibitor, partial curve, poor fit]
